# Measurements reported in PubChem BioAssay AID588591 (National Center for Advancing Translational Sciences (NCATS), 2011).
# In all, about 390,000 compounds went through this assay and about 4,700 (1.2%) were called active. About 4% were inconclusive and are not listed. The call rests on the fitted dose curve; in most records, active means well fitted inhibition curve with a large enough effect; inconclusive means small, poorly fitted or top-dose-only effect, or another doubt; inactive means no such curve, though single readings can be large or run the other way. The entries are a selection whose mix differs from that of the whole data set.
# Target: DNA polymerase eta (Homo sapiens) (UniProt Q9Y253)
# UniProt Q9Y253, sequence (Q9Y253 whole entry, looked up): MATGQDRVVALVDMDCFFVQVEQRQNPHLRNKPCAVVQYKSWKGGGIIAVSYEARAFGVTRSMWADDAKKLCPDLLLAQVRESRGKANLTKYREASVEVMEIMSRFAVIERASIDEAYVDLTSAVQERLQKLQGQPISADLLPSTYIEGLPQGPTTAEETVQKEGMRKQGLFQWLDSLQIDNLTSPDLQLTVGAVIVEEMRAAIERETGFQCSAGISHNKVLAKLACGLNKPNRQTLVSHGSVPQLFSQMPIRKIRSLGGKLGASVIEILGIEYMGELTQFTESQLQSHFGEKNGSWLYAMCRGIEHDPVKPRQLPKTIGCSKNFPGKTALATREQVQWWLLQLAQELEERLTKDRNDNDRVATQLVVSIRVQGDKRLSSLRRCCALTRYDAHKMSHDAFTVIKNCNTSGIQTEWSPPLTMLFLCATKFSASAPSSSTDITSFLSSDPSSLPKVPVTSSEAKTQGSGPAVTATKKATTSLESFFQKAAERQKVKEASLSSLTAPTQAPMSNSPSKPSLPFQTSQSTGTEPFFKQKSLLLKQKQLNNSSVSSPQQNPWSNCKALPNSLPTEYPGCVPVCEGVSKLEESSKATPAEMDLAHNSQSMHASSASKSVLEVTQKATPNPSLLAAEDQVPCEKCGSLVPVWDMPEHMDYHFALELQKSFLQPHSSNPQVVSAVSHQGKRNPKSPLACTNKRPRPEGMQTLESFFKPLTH
# Test: qHTS for Inhibitors of Polymerase Eta
# Details: recombinant Pol eta, fluorescent DNA replication assay; series mostly up to 114 µM; activity change, negative = inhibition: at the top concentration
# Summary of the method: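 Pol eta at 10 nM preincubated with compounds 15 min at room temperature; reaction started with fluorescent substrate (50 nM final) and read kinetically at 0 and 10 min.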
# On the % scale 0 is the no-effect control and ±100 the full control effect; potency means the concentration at half of the fitted maximal effect.
Structure (SMILES),Potency,"activity change, negative = inhibition"
NS(=O)(=O)c1ccc(CCNc2nc3c(-c4cccc(F)c4)nnn3c3ccc(Cl)cc23)cc1,active: 89.1 µM,–
Cc1ccc2sc(=O)[nH]c2c1,–,inactive: 21%
COc1ccc(C(=O)CC(c2ccccc2)C2C(=O)CCCC2=O)cc1 (stereo unspecified),active: 79.4 µM,–
O=C(c1ccc2c(c1)OCO2)N(CC1CCCO1)C1(C(=O)NC2CCCC2)CCCCC1 (stereo unspecified),–,inactive: -12.6%
O=C(OCc1cn([C@H]2CN(Cc3cccs3)[C@@H](c3ccccc3)C[C@@H]2O)nn1)c1ccccc1,–,inactive: -14.5%
Cc1ccc(NC(CC(=O)c2ccccc2)C(=O)O)cc1Cl (stereo unspecified),–,inactive: 30.6%
NC(=O)c1cc[n+](CC2=C(C(=O)O)N3C(=O)[C@@H](NC(=O)C(c4ccccc4)S(=O)(=O)[O-])[C@H]3SC2)cc1 (stereo partly specified),–,inactive: -99.6%
COc1ccc(NC(=O)Cn2nc(C(F)(F)F)c3c2CCCC3)cc1OC,–,inactive: -26.9%
CCCCCC(=O)N1C[C@@H](n2cc(-c3ccc(F)cc3)nn2)[C@H](O)C[C@@H]1c1ccc(C)cc1,–,inactive: -20.1%
CCCc1nc(SCC(=O)NNC(=O)c2ccc(OC)cc2)c2ccccc2n1,–,inactive: 34.6%
CC(/C=C/c1ccco1)=N\NC(=O)c1cc(C)[nH]n1,active: 79.4 µM,–
COc1ccc(C(=O)C2CCCN(C(=O)Cn3nc(C)cc3C)C2)cc1F (stereo unspecified),–,inactive: 38.7%
O=C(Nc1nnc(S(=O)(=O)N2CCCc3ccccc32)s1)c1ccccc1Br,active: 79.4 µM,–
CC1=C(C)C(=O)C(CCCCC#CCCCC#CCO)=C(C)C1=O,–,inactive: -9.12%
C=CCC[C@@H](Cc1ccc(F)cc1)C(=O)OC[C@H](C)NC(=O)[C@H](CC=C)CC(=O)N(CCO)Cc1ccccc1,–,inactive: -26.8%
COc1ccc(S(=O)(=O)Nc2ccc(O)c(Sc3nc4ccccc4s3)c2)cc1,–,inactive: -7.34%
O=C(C1=C[C@H](C2CCCCC2)C[C@H](OCCCCO)O1)N1CCN(Cc2ccc3c(c2)OCO3)CC1,–,inactive: -17.9%
N/C(=N\OC(=O)c1ccc(Cl)cc1Cl)c1ccncc1,–,inactive: 18%
CCC1CCCCN1S(=O)(=O)c1ccc2[nH]c(=O)ccc2c1 (stereo unspecified),active: 50.1 µM,–
Cc1ccc(NC(=O)c2nc[nH]c2C(=O)N[C@@H](C)c2ccccc2)cc1,–,inactive: -12.5%
COC(=O)[C@H]1[C@H]2C[C@@H]3c4[nH]c5cc(OC)ccc5c4CCN3C[C@H]2C[C@@H](OC(=O)c2cc(OC)c(OC)c(OC)c2)[C@@H]1OC,–,inactive: -8.91%
Cc1cc(/C=N/NC(=O)C(O)(c2ccccc2)c2ccccc2)c(C)n1-c1ccc(C(=O)O)cc1,active: 79.4 µM,–
O=C(NCCC1=CCCCC1)C1CCC(CNS(=O)(=O)c2ccccc2)CC1 (stereo unspecified),–,inactive: 2.5%

Structure (SMILES),Potency,"activity change, negative = inhibition"
Nc1nc(Nc2ccc(Cl)cc2)c(NC=O)c(=O)[nH]1,–,inactive: 31.1%
CCCCCCN(CCCCCC)C(=O)Cc1c(-c2ccc(F)cc2)[nH]c2ccccc12,–,inactive: -19.8%
C=C[C@]1(C)C=C2CC[C@H]3[C@@](C)(CCC[C@@]3(C)C(=O)O)[C@@H]2CC1,–,inactive: 4.64%
CC1CC(C)CN(C(=O)Cn2cc(C=O)c3ccccc32)C1 (stereo unspecified),–,inactive: 38.6%
Cc1ccc2c(c1)c(=O)c1ccccc1n2CCCC(=O)Nc1ccc(Cl)cc1C,active: 89.1 µM,–
CCOC(=O)c1sc2ncn(/N=C/N(C)C)c(=O)c2c1C,–,inactive: 15.5%
Cc1cc(C)cc(NS(=O)(=O)c2ccc3[nH]cc(C(=O)NCc4ccco4)c(=O)c3c2)c1,–,inactive: -5.58%
CSc1ccc(CCNC(=O)c2ccc3c(c2)c(C)c(C)n3Cc2ccc(F)cc2)cc1,–,inactive: 18.3%
CCOc1cc(/C=C2/COc3ccccc3C2=O)ccc1OCC(=O)N(C)C,–,inactive: 8.37%
C=CCC[C@@H](Cc1ccc(F)cc1)C(=O)OC[C@H](C)NC(=O)[C@@H](CC=C)CC(=O)N(CCO)Cc1ccccc1,–,inactive: -7.99%
CCC(=O)N1c2ccc(S(=O)(=O)N3CCN(c4ccccc4Cl)CC3)cc2CC1C (stereo unspecified),–,inactive: -11%
CCOC(=O)c1c(S(=O)(=O)NCC(=O)Nc2cc(C)ccc2OC)c(C)n(C)c1C,–,inactive: 1.33%
Cn1c2ccccc2c2nnc(N/N=C/c3ccc(O)cc3)nc21,–,inactive: 35.9%
CC(=O)c1ccc(S(=O)(=O)Nc2ccc(-c3ccc4nncn4n3)cc2)cc1,active: 20 µM,–
O=C(NCc1ccco1)c1cccc2c1C(=O)c1ccc(/C=C/c3ccccc3)cc1S2(=O)=O,active: 14.1 µM,–
Cc1c(-c2nc(-c3ccncc3)no2)cccc1[N+](=O)[O-],–,inactive: 36%
N#CC(C#N)=C1C=C2C=C(N3CCCCC3)CCC2CC1 (stereo unspecified),active: 79.4 µM,–
CC(C)(C)c1ccc(-c2nc(SCC(=O)Nc3ccc(Cl)cc3)[nH]c(=O)c2C#N)cc1,active: 28.2 µM,–
C[C@H](NC(=O)[C@@H]1Cc2ccccc2CN1)C(=O)NC1CCCCC1,–,inactive: -11.7%
O=C(CSc1nnc(-c2ccco2)c(-c2ccco2)n1)c1ccccc1,active: 35.5 µM,–
Cc1ccc(N(CC2=NCCN2)c2cccc(O)c2)cc1,inactive,–
C=CC[C@@H](CC(=O)N(CCO)Cc1ccccc1)C(=O)N[C@@H](C)COC(=O)[C@@H](CC=C)Cc1ccc(F)cc1,–,inactive: -21.8%
CCCCC(CCC(=O)Nc1ccn(-c2ccccc2)n1)C(=O)O (stereo unspecified),–,inactive: 38%
